# Reference: PubChem BioAssay AID1030 (National Center for Advancing Translational Sciences (NCATS), 2008)
# Screen size: about 220,000 compounds; about 16,000 (7.3%) were called active. This list was built around the results that the source calls inconclusive (neither active nor inactive); the mix of calls is not that of the screen. The call rests on the fitted dose curve; in most records, active means well fitted inhibition curve with a large enough effect (not every such curve was filed as active); inconclusive means small, poorly fitted or top-dose-only effect, or another doubt; inactive means no such curve, though single readings can be large or run the other way. Potencies of inconclusive entries are left out as doubtful fits.
# Biological target: Aldehyde dehydrogenase 1A1 (Homo sapiens) (UniProt P00352)
# Assay: qHTS Assay for Inhibitors of Aldehyde Dehydrogenase 1 (ALDH1A1);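 on activity, negative = inhibition: plate controls were no enzyme wells and a reference inhibitor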
# Conditions: Purified ALDH1A1, NADH fluorescence, propionaldehyde substrate; series mostly up to 75.3 µM; activity, negative = inhibition: at the top concentration
# Potency means the concentration at half of the fitted maximal effect; tags describe the fitted curve by direction and shape.
# UniProt P00352, sequence (P00352 whole entry, looked up): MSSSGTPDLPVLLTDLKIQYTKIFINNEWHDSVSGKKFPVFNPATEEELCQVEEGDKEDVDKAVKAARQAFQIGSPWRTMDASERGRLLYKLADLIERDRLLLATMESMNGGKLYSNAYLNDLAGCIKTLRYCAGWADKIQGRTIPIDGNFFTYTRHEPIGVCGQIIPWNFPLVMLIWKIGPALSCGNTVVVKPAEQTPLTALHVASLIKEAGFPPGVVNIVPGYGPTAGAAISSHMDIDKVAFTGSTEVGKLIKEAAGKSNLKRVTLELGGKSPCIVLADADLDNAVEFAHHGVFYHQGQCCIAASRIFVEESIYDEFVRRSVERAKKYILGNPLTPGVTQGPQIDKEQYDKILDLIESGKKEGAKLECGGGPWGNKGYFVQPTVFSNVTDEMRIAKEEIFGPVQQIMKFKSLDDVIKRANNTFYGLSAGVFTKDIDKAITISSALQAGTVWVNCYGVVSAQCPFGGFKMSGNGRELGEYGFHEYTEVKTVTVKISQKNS
Structure (SMILES),Potency,"activity, negative = inhibition"
Nc1c(C(=O)NC2CC2)c2nc3ccccc3nc2n1-c1ccc2c(c1)OCO2,"inconclusive [inhibitor, partial curve]",
O=C(NCCN1CCN(c2ccccc2)CC1)C1CCN(S(=O)(=O)c2cccc3nsnc23)CC1,,inactive: 1.49%
Cn1ncc(Cl)c1C(=O)Nc1ccncc1,,inactive: -8.55%
O=C(Nc1ccc(Nc2ccccc2)cc1)Nc1ccccc1Cl,,inactive: -7.5%
Cc1ccc2nc(C)c(C(=O)NN=C3CCN(C)CC3)n2c1,active: 7.94 µM,
CCOC(=O)/C(C#N)=C1\Nc2ccccc2N=C1N(CC(C)C)CC(C)C,"inconclusive [inhibitor, partial curve]",
Cc1cc(O)c(/C=N/Nc2cccc(Cl)c2)c(=O)o1,"inconclusive [inhibitor, single point]",
COc1cccc(-n2c(C)c3c(OC)cccc(=O)c3c2C)c1,"inconclusive [inhibitor, partial curve]",
Cc1ccc2cc(CN(CC3CCCO3)S(=O)(=O)c3ccccc3)c3nnnn3c2c1 (stereo not drawn),active: 7.08 µM,
COC(=O)c1[nH]c2ccc(F)cc2c1NC(=O)CCN1CC(C)OC(C)C1 (stereo not drawn),"inconclusive [inhibitor, partial curve]",
N#Cc1c(C(F)(F)F)cc(-c2ccccc2Cl)[nH]c1=O,"inconclusive [inhibitor, partial curve]",
Cc1cccc(NC(=O)Cn2cnc3c(oc4ccccc43)c2=O)c1,,inactive: 1.44%
Fc1cccc(-c2cc3nc(-c4ccccc4)cc(N4CCC5(CC4)OCCO5)n3n2)c1,"inconclusive [inhibitor, partial curve]",
CCOC(=O)CCSc1nc(-c2ccc3c(c2)OCO3)cc(C(F)(F)F)c1C#N,"inconclusive [inhibitor, partial curve]",
Cc1ccccc1-n1nnnc1SCc1cc(=O)n2ccsc2n1,active: 0.631 µM,
Cc1ccc(Cn2cccc(NC(=O)c3ccco3)c2=O)cc1,,inactive: -2.13%
CC(=O)C1=C(O)C(=O)N(c2nccs2)C1c1ccc(Br)cc1 (stereo not drawn),"inconclusive [inhibitor, partial curve]",
COC(=O)CCCCCNc1ccc(C(=O)OC)cc1N,"inconclusive [inhibitor, partial curve, poor fit]",
O=C1c2ccccc2C(Nc2cccc(C(F)(F)F)c2)N1Cc1ccco1 (stereo not drawn),,inactive: -15.7%
O=C1CCCC2=C1C(c1ccc(O)c(O)c1)c1c(ccc3ncccc13)N2 (stereo not drawn),"inconclusive [inhibitor, single point]",
Cc1ccc(-n2ncc(C#N)c2/N=C/N(C)C)cc1,"inconclusive [inhibitor, single point]",
COc1ccc(CNC(=O)CN(C(=O)CCC(=O)Nc2ccccn2)c2ccccc2OC)cc1,"inconclusive [inhibitor, partial curve]",
CCc1nc(NCc2ccc3c(c2)OCO3)c2oc3ccccc3c2n1,active: 12.6 µM,
CC(=O)N1/C(=C/c2ccc(N(C)C)cc2)C(=O)c2ccccc21,"inconclusive [inhibitor, single point]",

Structure (SMILES),Potency,"activity, negative = inhibition"
Cc1ccc(S(=O)(=O)Oc2ccc(/C=C3\N=C(c4cccc(C)c4)OC3=O)cc2)cc1,"inconclusive [inhibitor, partial curve]",
COc1ccc(N2CCN(C(=O)Cc3ccc(-n4c(=O)[nH]c5ccccc5c4=O)cc3)CC2)cc1,,inactive: 4.27%
C=CCSc1nnc(NC(=O)c2ccc(NC(C)=O)cc2)s1,"inconclusive [inhibitor, single point]",
CCN(CC)c1ccc(NC(=O)c2cccc(C)c2OC)c(C)c1,"inconclusive [inhibitor, single point]",
CCOC(=O)N/N=C(/c1ccccc1)C1CCCCC1,,inactive: 5.95%
O=C(Cn1nnc(-c2ccccc2F)n1)NCc1ccco1,,inactive: -6.29%
CCCC(c1nnnn1Cc1ccc(F)cc1)N1CCN(C2CCCCC2)CC1 (stereo not drawn),"inconclusive [inhibitor, single point]",
COc1ccc(NC(=O)C(=O)NCc2ccncc2)c(OC)c1,,inactive: 10.5%
CCCCC(C(=O)NCCC(C)C)N(CCCN1CCOCC1)C(=O)c1snc(C(N)=O)c1N (stereo not drawn),"inconclusive [inhibitor, single point]",
COc1ccccc1N(Cc1ccccc1)S(=O)(=O)c1cc(C(=O)O)ccc1Cl,"inconclusive [inhibitor, single point]",
COc1ccccc1NS(=O)(=O)c1cccc(C(=O)N/N=C/c2ccc(OCC(=O)O)cc2)c1,"inconclusive [inhibitor, partial curve]",
CSc1cccc(-n2c(C)cc(C(N)=O)c2C)c1,,inactive: 6.38%
CCCc1cc(C(=O)Nc2nccs2)cs1,"inconclusive [inhibitor, partial curve]",
O=Cc1cn(-c2ccc(F)cc2)c2ccccc12,active: 2 µM,
CCS(=O)(=O)Nc1ccc(C2=NN(S(C)(=O)=O)C(c3cccs3)C2)cc1 (stereo not drawn),"inconclusive [inhibitor, single point]",
COc1cccc(-n2nnnc2SCC(=O)c2cc(OC)ccc2OC)c1,,inactive: -21.9%
CCN(CC)CCNC(=O)c1cccc(NC(=O)C(=O)c2ccccc2NC(C)=O)c1,,inactive: 4.83%
CC(=O)Nc1sc(/C(C#N)=C/c2ccc(Cl)c(Cl)c2)nc1-c1ccc(C)cc1,,inactive: -14.3%
CCN1C(=O)C(=O)N(CC(=O)Nc2ccccc2Oc2ccccc2)C1=O,,inactive: 0.437%
c1ccc(C(c2nnnn2C2CCCC2)N2CCCCCC2)nc1 (stereo not drawn),"inconclusive [inhibitor, partial curve]",
O=[N+]([O-])c1ccc(CN2CCN(c3ccc4ccccc4n3)CC2)cc1,,inactive: 0.152%
O=S(=O)(NCC(c1cccnc1)N1CCN(c2ccccc2)CC1)c1cccs1 (stereo not drawn),active: 2.51 µM,
CC(C)(C)OC(=O)NNC1CC(=O)N(c2ccccc2F)C1=O (stereo not drawn),,inactive: 9.61%
CN(C)CCNC(=O)c1coc(=O)c(Br)c1,"inconclusive [inhibitor, partial curve]",
